Results: US20240343791A1 (YUANPU BIOTECHNOLOGY WUHAN, published 2024)

Assays:
[1] = biological target: T1, human VEGFC (Cat. No. Z03286, Genscript) (human, UniProt P49767 112-227, limits assumed); experiment: cell-based or functional assay
T1 sequence (looked up): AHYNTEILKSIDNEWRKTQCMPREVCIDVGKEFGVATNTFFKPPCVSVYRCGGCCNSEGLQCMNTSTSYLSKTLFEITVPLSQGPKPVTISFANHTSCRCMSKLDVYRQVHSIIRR

[2] = biological target: T2, VEGFC-his (Cat. No. VEC-H4225, AcroBio systems) (UniProt P49767 112-227, limits assumed); experiment: competition ELISA: plate coated with VEGFR3-Fc, BiFpC2 in dilution series pre-incubated with 2.5 nM VEGFC-his, VEGFC-his bound to VEGFR3-Fc detected with anti-His HRP. The sheet prints ng/mL, the text prints nM
T2 construct: also called VEGFC-his dimer; not shown: His tag
T2 sequence (looked up): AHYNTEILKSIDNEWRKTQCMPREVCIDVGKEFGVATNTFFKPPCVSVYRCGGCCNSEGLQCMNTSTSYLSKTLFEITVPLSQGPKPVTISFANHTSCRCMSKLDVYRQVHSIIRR

[3] = biological target: T1, human VEGFC (Cat. No. Z03286, Genscript); experiment: SPR (Biacore), compared with OPT-302
Procedure: (§1) Human VEGFC (Cat. No.: Z03286-10 μg, Genscript, China) solutions with concentrations of 10, 5, 2.5, 1.25, 0.63, 0.31, 0.16, 0.08, and 0 (blank) nM were produced by diluted into a running buffer. Each analysis cycle comprises: (1) capturing the bispecific protein on flow pool 2 (Fc2), (2) injecting the VEGFC solution onto flow cells 1 and 2 (Fc1 and Fc2) at a rate of 30 μL/minute (for 120 seconds), (3) allowing 1×HBS-EP+buffer to flow at 30 μL/minute through the chip for 360 seconds to monitor the dissociation phase, (4) injecting a 10 mM glycine hydrochloride buffer, pH 1.5, to allow surface regeneration of the chip. The data was processed by Biacore™ Insight Evaluation software, using standard double reference and fitting with a 1:1 binding model, to determine the binding rate (kₐ) and dissociation rate (kd).

[4] = biological target: T1, human VEGFC (Cat. No. Z03286, Genscript); experiment: ELISA, plate coated with VEGFC, detection with HRP anti-human IgG
[5] = biological target: T3, human VEGFA (Cat. No. Z03073, Genscript) (human, UniProt P15692-4 27-191); experiment: ELISA, plate coated with VEGFA, detection with HRP anti-human IgG
T3 construct: Bought protein; also called VA; VEGFA165
T3 sequence (looked up): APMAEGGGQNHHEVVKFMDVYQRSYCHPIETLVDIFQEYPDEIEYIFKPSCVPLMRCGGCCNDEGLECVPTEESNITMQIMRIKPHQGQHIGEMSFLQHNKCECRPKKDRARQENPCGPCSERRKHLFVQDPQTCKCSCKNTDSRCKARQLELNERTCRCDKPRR

[6] = biological target: T3, human VEGFA (Cat. No. Z03073, Genscript); experiment: SPR (Biacore), protein captured on protein A chip, VEGFA as analyte, 25 C
Source text: The data was processed by Biacore™ Insight Evaluation software, using standard double reference and fitting with a 1:1 binding model, to determine the binding rate (kₐ) and dissociation rate (kd).

[7] = biological target: T1, human VEGFC (Cat. No. Z03286, Genscript); experiment: SPR (Biacore), protein captured on protein A chip, VEGFC as analyte, 25 C
Procedure: as §1

[8] = biological target: T3, human VEGFA (Cat. No. Z03073, Genscript); experiment: competition ELISA: plate coated with Eylea, BiFpC2 in dilution series pre-incubated with 5 nM VEGFA, VEGFA bound to Eylea detected. The sheet prints ng/mL, the text prints nM
[9] = biological target: T2, VEGFC-his (Cat. No. VEC-H4225, AcroBio …); experiment: competition ELISA, VEGFR3-Fc coated as competitor, 2.5 nM VEGFC-his dimer pre-incubated with BiFpC2
[10] = biological target: T3, human VEGFA (Cat. No. Z03073, Genscript); experiment: competition ELISA, Eylea coated as competitor, 5 nM VEGFA dimer pre-incubated with BiFpC2
[11] = biological target: T3, human VEGFA (Cat. No. Z03073, Genscript); experiment: cell-based or functional assay
[12] = biological target: T3, human VEGFA (Cat. No. Z03073, Genscript); experiment: cell-based or functional assay; remark: listed apart in the source
[13] = biological target: T1, human VEGFC (Cat. No. Z03286, Genscript); experiment: cell-based or functional assay; remark: listed apart in the source
[14] = biological target: T4, Human VEGFC Protein (His Tag) (Cat. No. 10542-H08H, Sino Biological) (human, UniProt P49767 32-227); experiment: competition ELISA, VEGFC (His Tag) coated, biotinylated human VEGFR3 as competitor, streptavidin-HRP detection
T4 construct: not shown: His tag
T4 sequence (looked up): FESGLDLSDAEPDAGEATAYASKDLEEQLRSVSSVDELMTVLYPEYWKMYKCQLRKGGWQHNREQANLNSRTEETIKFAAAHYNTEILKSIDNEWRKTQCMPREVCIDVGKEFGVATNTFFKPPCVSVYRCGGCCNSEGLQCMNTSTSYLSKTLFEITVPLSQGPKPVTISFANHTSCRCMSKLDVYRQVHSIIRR

B1: BiFpC2 (Fc fusion)
chain: SDTGRPFVEMYSEIPEIIHMTEGRELVIPCRVTSPNITVTLKKFPLDTLIPDGKRIIWDSRKGFIISNATYKEIGLLTCEATVNGHLYKTNYLTHRQTNTIIDVVLSPSHGIELSVGEKLVLNCTARTELNVGIDFNWEYPSSKHQHKKLVNRDLKTQSGSEMKKFLSTLTIDGVTRSDQGLYTCAASSGLMTKKNSTFVRVHEKGGGSGGYSMTPPTLNITEESHVIDTGDSLSISCRGQHPLEWAWPGAQEAPATGDKDSEDTGVVRDCEGTDARPYCKVLLLHEVHAQDTGSYVCYYKYIKARIEGTTAASSYVFVRDFEQPFINKPDTLLVNRKDAMWVPCLVSIPGLNVTLRSQSSVLWPDGQEVVWDDRRGMLVSTPLLHDALYLQCETTWGDQDFLSNPFLVHITGNELYDIQLLPRKSLELLVGEKLVLNCTVWAEFNSGVTFDWDYPGKQAERGKWVPERRSQQTHTELSSILTIHNVSQHDLGSYVCKANNGIQRFRESTEVIVHE[left out - human IgG1 Fc]
notes: also called bispecific protein BiFpC2
**Q.** What does the source list for B1?
**A.** IC50 (inhibition of VEGFC-induced HUVEC proliferation, CellTiter-Glo) [1]: 9 µg/mL; IC50 [2]: 0.0048 µg/mL; fold of VEGFC affinity against OPT-302 [3]: ~10 times; EC50 (read off the curve) [4]: ~0.3 µg/mL; EC50 (read off the curve) [5]: ~0.04 µg/mL; Kd [6]: 0.0567 nM; koff [6]: 0.000856 s⁻¹; kon [6]: 1.51e+07 M⁻¹ s⁻¹; Kd [7]: 0.0923 nM; koff [7]: 0.000247 s⁻¹; kon [7]: 2.67e+06 M⁻¹ s⁻¹; IC50 [8]: 0.0106 µg/mL; IC50 [9]: 4.8 nM; IC50 [10]: 10.6 nM; IC50 (inhibition of VEGFA-induced HUVEC proliferation, CellTiter-Glo) [11]: 0.0255 µg/mL

B2: BiFpC6 (Fc fusion)
chain: SDTGRPFVEMYSEIPEIIHMTEGRELVIPCRVTSPNITVTLKKFPLDTLIPDGKRIIWDSRKGFIISNATYKEIGLLTCEATVNGHLYKTNYLTHRQTNTIIDVVLSPSHGIELSVGEKLVLNCTARTELNVGIDFNWEYPSSKHQHKKLVNRDLKTQSGSEMKKFLSTLTIDGVTRSDQGLYTCAASSGLMTKKNSTFVRVHEKGGGSGGYSMTPPTLNITEESHVIDTGDSLSISCRGQHPLEWAWPGAQEAPATGDKDSEDTGVVRDCEGTDARPYCKVLLLHEVHANDTGSYVCYYKYIKARIEGTTAASSYVFVRDFEQPFINKPDTLLVNRKDAMWVPCLVSIPGLNVTLRSQSSVLWPDGQEVVWDDRRGMLVSTPLLHDALYLQCETTWGDQDFLSNPFLVHITGNELYDIQLLPRKSLELLVGEKLVLNCTVWAEFNSGVTFDWDYPGKQAERGKWVPERRSQQTHTELSSILTIHNVSQHDLGSYVCKANNGIQRFRESTEVIVHE[left out - human IgG1 Fc]
notes: also called bispecific protein BiFpC6
**Q.** For B2, which “IC50 (inhibition of VEGFA-induced HUVEC proliferation, CellTiter-Glo)” value [12] is on record?
**A.** 0.0823 µg/mL

**Q.** What about the “fold of VEGFC affinity against OPT-302” value [3] of the same binder?
**A.** ~10 times

**Q.** What about the “EC50 (read off the curve)” value [4] of the same binder?
**A.** ~0.3 µg/mL

**Q.** And the “EC50 (read off the curve)” value [5]?
**A.** ~0.04 µg/mL

**Q.** And the Kd [6]?
**A.** 0.0293 nM

**Q.** And the koff [6]?
**A.** 0.000236 s⁻¹

**Q.** And the kon [6]?
**A.** 8.06e+06 M⁻¹ s⁻¹

**Q.** What about the Kd [7] of the same binder?
**A.** 0.0633 nM

**Q.** And the koff [7]?
**A.** 0.0002 s⁻¹

**Q.** What about the kon [7] of the same binder?
**A.** 3.17e+06 M⁻¹ s⁻¹

**Q.** What about the “IC50 (inhibition of VEGFC-induced HUVEC proliferation, CellTiter-Glo)” value [13] of the same binder?
**A.** 0.0852 µg/mL

**Q.** What about the IC50 [14] of the same binder?
**A.** 5.41 µg/mL

B3: BiFpC1 (Fc fusion)
chain: SDTGRPFVEMYSEIPEIIHMTEGRELVIPCRVTSPNITVTLKKFPLDTLIPDGKRIIWDSRKGFIISNATYKEIGLLTCEATVNGHLYKTNYLTHRQTNTIIDVVLSPSHGIELSVGEKLVLNCTARTELNVGIDFNWEYPSSKHQHKKLVNRDLKTQSGSEMKKFLSTLTIDGVTRSDQGLYTCAASSGLMTKKNSTFVRVHEK[left out - human IgG1 Fc]GGSGGYSMTPPTLNITEESHVIDTGDSLSISCRGQHPLEWAWPGAQEAPATGDKDSEDTGVVRDCEGTDARPYCKVLLLHEVHAQDTGSYVCYYKYIKARIEGTTAASSYVFVRDFEQPFINKPDTLLVNRKDAMWVPCLVSIPGLNVTLRSQSSVLWPDGQEVVWDDRRGMLVSTPLLHDALYLQCETTWGDQDFLSNPFLVHITGNELYDIQLLPRKSLELLVGEKLVLNCTVWAEFNSGVTFDWDYPGKQAERGKWVPERRSQQTHTELSSILTIHNVSQHDLGSYVCKANNGIQRFRESTEVIVHE
notes: also called bispecific protein BiFpC1
**Q.** How did the Kd [6] turn out when B3 was run?
**A.** 0.0191 nM

**Q.** And the koff [6]?
**A.** 0.000499 s⁻¹

**Q.** And the kon [6]?
**A.** 2.61e+07 M⁻¹ s⁻¹

**Q.** And the Kd [7]?
**A.** 0.372 nM

**Q.** What about the koff [7] of the same binder?
**A.** 0.00403 s⁻¹

**Q.** What about the kon [7] of the same binder?
**A.** 1.08e+07 M⁻¹ s⁻¹

B4: BiFpC4 (Fc fusion)
chain: YSMTPPTLNITEESHVIDTGDSLSISCRGQHPLEWAWPGAQEAPATGDKDSEDTGVVRDCEGTDARPYCKVLLLHEVHAQDTGSYVCYYKYIKARIEGTTAASSYVFVRDFEQPFINKPDTLLVNRKDAMWVPCLVSIPGLNVTLRSQSSVLWPDGQEVVWDDRRGMLVSTPLLHDALYLQCETTWGDQDFLSNPFLVHITGNELYDIQLLPRKSLELLVGEKLVLNCTVWAEFNSGVTFDWDYPGKQAERGKWVPERRSQQTHTELSSILTIHNVSQHDLGSYVCKANNGIQRFRESTEVIVHE[left out - human IgG1 Fc]GGSGGGEIVMTQSPSTLSASVGDRVIITCQASEIIHSWLAWYQQKPGKAPKLLIYLASTLASGVPSRFSGSGSGAEFTLTISSLQPDDFATYYCQNVYLASTNGANFGQGTKLTVLGGGGGSGGGGSGGGGSGGGGSEVQLVESGGGLVQPGGSLRLSCTASGFSLTDYYYMTWVRQAPGKGLEWVGFIDPDDDPYYATWAKGRFTISRDNSKNTLYLQMNSLRAEDTAVYYCAGGDHNSGWGLDIWGQGTLVTVSS
notes: also called bispecific protein BiFpC4
**Q.** For B4, which Kd [6] is on record?
**A.** 0.0102 nM

**Q.** What about the koff [6] of the same binder?
**A.** 0.000239 s⁻¹

**Q.** What about the kon [6] of the same binder?
**A.** 2.35e+07 M⁻¹ s⁻¹

**Q.** What about the Kd [7] of the same binder?
**A.** 0.1 nM

**Q.** And the koff [7]?
**A.** 0.00191 s⁻¹

**Q.** And the kon [7]?
**A.** 1.91e+07 M⁻¹ s⁻¹

Like-named read-outs stand apart in the source and are kept apart here.
